This is an account of results in publication PMC4102417 (PLoS Neglected Tropical Diseases, 2014).

As a reminder, the EC50 is the concentration at which the effect is half-maximal. For orientation: CC50 means the concentration that lowers cell viability or growth by half. A higher CC50 goes with lower toxicity to the cells.

Each structure is given as a SMILES string. Counter-ions that a name gives are not always drawn. Like-named read-outs stand apart in the source and are kept apart here.

Series [1] relates to T. cruzi (Tulahuen strain). The experiment in a line: microbe, parasite or virus in culture. It counts as cell-based, Trypanosoma cruzi. The following applies: for EC50: Trypanosoma cruzi, TULAHUEN, Fibroblast, read-out: T. cruzi EC50 (nM). As to the method: Compounds were tested against T. cruzi (Tulahuen strain) stably expressing the beta-galactosidase gene as previously described. […] Fibroblasts were plated at a density of 2×10^3 per well in 96 well tissue culture plates. After 24 hours of incubation, 1×10^4 trypomastigotes/well were added to the fibroblasts and incubated for 4 hours before addition of the test compounds from the Spectrum Collection (10 µM final concentration). Cultures were incubated at 37°C for 5 days, then developed with chlorophenol red β-D-galactopyranoside as previously described. The percent inhibition is reported with standard deviation of the mean. […] Z-prime values were calculated for each 96-well plate based on positive (4 wells) and negative controls (4 wells).

The nature of another series: in vitro. It counts as cell-based, murine. The following applies: mouse, Mammalian cell CC50 (nM).
In the next series the test system is T. cruzi. The following applies: read-out: anti-T. cruzi activity EC50; cited from earlier work.

For the compound `Clc1ccccc1C(c1ccccc1)(c1ccccc1)n1ccnc1` [CLOTRIMAZOLE, 1-[(2-chlorophenyl)diphenylmethyl]-1H-imidazole], the EC50 in series [1] was determined as 1 nM.

`CN1CCCC1CCOC(C)(c1ccccc1)c1ccc(Cl)cc1` (stereo not shown) [Clemastine, 2-{2-[1-(4-chlorophenyl)-1-phenylethoxy]ethyl}-1-methylpyrrolidine] came in with a CC50 in “in vitro” of 24000 nM.

For the compound `CSc1ccc2c(c1)N(CCC1CCCCN1C)c1ccccc1S2` (stereo not shown) [Thioridazine, 10-[2-(1-methylpiperidin-2-yl)ethyl]-2-(methylsulfanyl)-10H-phenothiazine], the Selectivity index in series [1] was 2.9. Also, the half-maximal effective concentration (EC50) in series [1] (120 h) came to 2600 nM.

As for `Clc1ccc2c(c1)C(N1CCNCC1)=Nc1ccccc1O2` [AMOXAPINE, 13-chloro-10-(piperazin-1-yl)-2-oxa-9-azatricyclo[9.4.0.0^{3,8}]pentadeca-1(15),3,5,7,9,11,13-heptaene], the EC50 in series [1] stood at 9350 nM. The same measure, in the same setting: with `COc1ccc(CCN2CCC(Nc3nc4ccccc4n3Cc3ccc(F)cc3)CC2)cc1` [ASTEMIZOLE, 1-[(4-fluorophenyl)methyl]-N-{1-[2-(4-methoxyphenyl)ethyl]piperidin-4-yl}-1H-1,3-benzodiazol-2-amine] the figure was 880 nM.

`CNCCC(Oc1ccc(C(F)(F)F)cc1)c1ccccc1` (stereo not shown) [Fluoxetine, methyl({3-phenyl-3-[4-(trifluoromethyl)phenoxy]propyl})amine hydrochloride]: in “in vitro”, the CC50 stood at 15800 nM. In the series on T. cruzi, the half-maximal effective concentration (EC50) was 7 µM. In the series “in vitro”, `CNC1CCC(c2ccc(Cl)c(Cl)c2)c2ccccc21` (stereo not shown) [Sertraline, 4-(3,4-dichlorophenyl)-N-methyl-1,2,3,4-tetrahydronaphthalen-1-amine hydrochloride] gave a 50% cytotoxic concentration (CC50) of 7600 nM.

In turn, `CN(C)CCCN1c2ccccc2CCc2ccc(Cl)cc21` [Clomipramine, (3-{5-chloro-2-azatricyclo[9.4.0.0^{3,8}]pentadeca-1(15),3,5,7,11,13-hexaen-2-yl}propyl)dimethylamine hydrochloride] came in with a CC50 in “in vitro” of 11000 nM.
